This is an account of results in paper PMC12209437, “Tailoring a novel colorectal cancer stem cell-targeted therapy by inhibiting the SMYD3/c-MYC axis” (Signal Transduction and Targeted Therapy, 2025).

This assay has as its target T1, full-length HIS-tagged SMYD3 recombinant protein (human, UniProt Q9H7B4 1-428).
T1 construct: SMYD3 (lysine methyltransferase SET and MYND Domain Containing 3), full length, from the plasmid pET28-MHL-SMYD3 (Addgene 32048); no species is printed for the Addgene plasmid; also called HIS-SMYD3; HIS-SMYD3 fusion protein; source: E. coli BL21 (DE3), purified (Dynabeads HIS-Tag Isolation and Pulldown)
T1 sequence (looked up): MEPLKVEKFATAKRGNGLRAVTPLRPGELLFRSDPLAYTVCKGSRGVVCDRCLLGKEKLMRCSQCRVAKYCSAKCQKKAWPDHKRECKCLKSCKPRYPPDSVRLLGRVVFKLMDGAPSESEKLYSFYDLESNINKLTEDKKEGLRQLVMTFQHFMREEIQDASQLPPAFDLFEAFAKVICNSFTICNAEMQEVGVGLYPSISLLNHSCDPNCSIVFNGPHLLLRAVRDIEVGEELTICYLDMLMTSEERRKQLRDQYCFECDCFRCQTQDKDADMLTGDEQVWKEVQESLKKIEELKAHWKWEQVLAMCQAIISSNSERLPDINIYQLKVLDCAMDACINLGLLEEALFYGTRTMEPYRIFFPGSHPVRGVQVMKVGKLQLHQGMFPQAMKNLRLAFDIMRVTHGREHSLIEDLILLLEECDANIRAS
Description: pull-down; HIS-SMYD3 incubated with recombinant c-MYC or FLAG c-MYC fragments for 1 h at 4 °C, precipitated with Dynabeads HIS-Tag Isolation and Pulldown, washed in buffer A (20 mM Tris-HCl pH 8, 150 mM KCl, 5 mM MgCl2, 0.2 mM EDTA, 10% glycerol, 0.1% NP-40, 1 mM DTT), immunoblot. Particulars: both partners purified. Background: In western blotting, separated proteins are transferred to a membrane and probed.

B1: FLAG c-MYC M1 ([…]) (domain or fragment)
chain: not shown
notes: amplified from p3xFLAG CMV14 c-MYC-WT, itself made from pcDNA3-c-MYC (Addgene 16011); Vector p3xFLAG-CMV14 (Sigma E7908); also called p3xFLAG CMV14 c-MYC-M1
As to B1, the binding result is “binds”.
